Reference: the supplement of paper PMC11417369
± gives the standard deviation of the averaged measurements. The list shows a part of the results.

tested on: PfAP2-I AP2 domain 3 (GST-tagged); assay: gcPBM binding intensity (ln(normalized median fluorescence intensity)); higher = stronger DNA binding
Method in brief: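 Alexa488 anti-GST antibody, scanned at 488 nm, detected GST-tagged P. falciparum DNA-binding domains that had been expressed in E. coli and incubated for 1 h on an Agilent 4 × 180k array. The array carried primer-extended double-stranded 36-bp intergenic genomic probes and negative controls. Binding intensity is the highest Masliner-normalised natural-log median intensity across replicate spots of either orientation of each probe.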

| Sequence | gcPBM binding intensity (ln) |
| --- | --- |
| GTCTAACAACCAAACGCACACACACTAATAAAAAAA [CACACA_site8026] | 8.88 ± 0.11 |
| CAATCATGGGTTTACACACACATGCATGTGAAAATT [CACACA_site1349] | 7.74 ± 0.65 |
| AAAAAAAAAAAAAAAAAAAAAAAAATATATAATTTA [CACACA_negctrl_site583] | 9.695 ± 0.007 |
| AACCAAACAAATAAACGTACAAACATTACATATATT [XGTACX_site2265] | 7.8 ± 0.39 |
| GATGATAATAAATTTATATATAATATTATCTTATGT [GTGCAC_negctrl_site672] | 7.48 ± 0.51 |
| CATATTAAAAATTATTGTACATATTAATGAATATAA [XGTACX_site2734] | 7.66 ± 0.085 |
| ATTTTTGCAGTAATTAAATAGACAAAATGAAAAAAA [CACACA_negctrl_site1537] | 8.36 ± 0.38 |
| AAAATAATATTTAATACACACATAATTTTAATATAA [CACACA_site4588] | 7.58 ± 0.5 |
| TACTTATATTATTTTATTATTAAATTTAAAACGAAA [CACACA_negctrl_site736] | 7.67 ± 0.46 |
| ACAATAAAGAAGTGTACACATATATCAATAAAAAAA [CACACA_site5228] | 8.22 ± 0.33 |
| ATATACACACAAAAACGTACACATATATATATGTAT [XGTACX_site2673] | 8.17 ± 0.085 |
| GGTATAATAATATATAGTACACACAAAAATGGAAGT [XGTACX_site7058] | 8.46 ± 0.61 |
| AAAAAAAAAAAAAGCACACATATAAATATGAATAAA [CACACA_site1393] | 8.39 ± 0.085 |
| AAAAAAAAAAAAAACACACACATACACCCAAAAATG [CACACA_site4223] | 8.4 ± 0.6 |
| TTTTTATAAATACACATAAATATATATATATATATA [TGCATGCA_negctrl_site393] | 9.18 ± 0.2 |
| ACACAAAAAAATATATATATATATATATATATGTTA [CACACA_negctrl_site55] | 8.14 ± 0.29 |
| ATGCATTATTAGAATACACACCATACGCATATTTAT [CACACA_site4319] | 8.41 ± 0.33 |
| AAAAAAAAAAAAAAATGTACATTTTGAAAGGATATA [XGTACX_site8217] | 8.38 ± 0.54 |
| TAAAGAAAAAGAGAATGTACATGAGAAAAGTATACT [XGTACX_site7472] | 8.18 ± 0.89 |

| Sequence | gcPBM binding intensity (ln) |
| --- | --- |
| AAAAAAGATAATTATGCACACACACCCACCCACCCA [CACACA_site8825] | 9.99 ± 0.18 |
| AGAAAAAAAAAAAAATGTACAGACTTTTTCTTATAA [XGTACX_site6481] | 7.6 ± 0.51 |
| AATCACAACAGACACACACACAAAAAAAAAAAAAAA [CACACA_site1442] | 8.08 ± 0.67 |
| TTAATATAATAGAAGTGTACACACATATTTATGTGT [XGTACX_site6672] | 8.12 ± 0.2 |
| ATATGTTATATAAATATATATATATATATATATATA [TGCATGCA_negctrl_site594] | 9.23 ± 0.59 |
| TAATAATAAAAATAAACACACATATATCTGTATTTA [CACACA_site5572] | 7.26 ± 0.41 |
| TATTTATAAACATACGCACACATTAAAATATATATA [CACACA_site6051] | 8.16 ± 0.32 |
| ATATATATATATATAGTGCATAAAATAAGTTTCTAA | 10.8 ± 0.21 |
| GGTGGAAACAATTACACACACACAAAAAAAAAAAAA [CACACA_site3208] | 8.11 ± 0.44 |
| TATACAATATATTTTGGTACACAAACAAAAAAATAT [XGTACX_site2522] | 8.13 ± 0.64 |
| ATTAAAAGAACCAAGTGTACATTCTATATATAAAAA [XGTACX_site4260] | 7.82 ± 0.59 |
| ATATTATGATCTATTTTTATATTCTATTTGATAAAT [CACACA_negctrl_site1070] | 7.54 ± 0.65 |
| GTTCACCAAAGGTAACGTACACAAACATATATATAT [XGTACX_site1073] | 9.09 ± 0.11 |
| GAAAAAGACAAAAGGTGTACAATATGAAATATATAT [XGTACX_site373] | 8.2 ± 0.5 |
| TAATTCTAAATAAATGTACACACAAAAATAAATGTA [CACACA_site8509] | 7.78 ± 0.45 |
| TTGATAAAATGGGAGAAATTAAAAAGGAAAAAAAAA [CACACA_negctrl_site1279] | 7.57 ± 0.76 |
| CTATTTTATATGTGCACACATATACACCCACAAATA [CACACA_site1131] | 10.5 ± 0.22 |
| TTATAAAATTTTCTTCTATATTTTAATTATTCTCAT [TGCATGCA_negctrl_site571] | 7.32 ± 0.81 |
| TATATATATATTATATGTACATAAATATTTATACTC [XGTACX_site114] | 8.83 ± 0.3 |

| Sequence | gcPBM binding intensity (ln) |
| --- | --- |
| TCTCATAGGAAACACACACACACACCCACATATATA [CACACA_site1738] | 8.11 ± 0.24 |
| TAAATAAAAAAAAAAAGTACATACATACAAACATAT [XGTACX_site4427] | 7.79 ± 0.47 |
| ATATATGTGCGCGTATGTACATAAAATAAATATACA [XGTACX_site2689] | 8.57 ± 0.64 |
| ATATATTTTTTAAATTTAAAAATTATAAAATTTATA [TGCATGCA_negctrl_site36] | 7.62 ± 0.25 |
| TGGGTCTCTAACTGGTGTACTATTTACATATTATAC [XGTACX_site8593] | 8.26 ± 0.45 |
| TATGATTTTAACAACTGTACAATATAATAAATCTAA [XGTACX_site2198] | 7.62 ± 0.23 |
| TAAAAGAAAAATTAGTGTACCAATATTAACATAAAA [XGTACX_site5474] | 7.63 ± 0.49 |
| ATATATTTTTAATTACGTACTTAATAATATATACAA [XGTACX_site3285] | 7.92 ± 0.26 |
| ATATCAACTGAATTGTATAGGCGATAAAAGAAAAAA [CACACA_negctrl_site1334] | 7.62 ± 0.86 |
| ATATAAATATATGTATGTACACATTTTTTTTTTTTT [XGTACX_site247] | 7.825 ± 0.021 |
| AGAATTATAAATTATAGTACATAAAATTTTGATGTA [XGTACX_site5726] | 7.52 ± 0.4 |
| TTTATACATACATTCGTGCACATACGTATAACATAT | 11.2 ± 0.19 |
| AAACGATCTCGATGTTGTACACATTTATATAGAAAC [XGTACX_site4373] | 8.34 ± 0.22 |
| CATGTGTGTATAATTTGTACATATACATAATAAATA [XGTACX_site2418] | 7.93 ± 0.33 |
| CTAAACTAAACAAACTGTACACAAATAAAACAATAA [XGTACX_site8880] | 7.99 ± 0.37 |
| TACTAAAATATATATATGCAACATGAGATATTCAAC [XGTACX_negctrl_site283] | 8.13 ± 0.51 |
| GTTGTCCCCCTTTCTATGCACACTTTAAATTATTCA [CACACA_site52] | 9.98 ± 0.23 |
| AATTTATAAGAATATTGTACGTTTAATATATTGTAA [XGTACX_site7553] | 7.7 ± 0.47 |
